Laboratory results reported in PubChem BioAssay AID624171 (National Center for Advancing Translational Sciences (NCATS), 2012).
Screen size: about 410,000 compounds; about 1,200 (0.29%) were called active. Another 2% or so got no clear call; they are omitted. Calls follow the shape of the dose curve; as a rule, active = well fitted activation curve with a large enough effect; inconclusive = small, poorly fitted or top-dose-only effect; inactive = flat fitted curve, though single readings scatter. Only a part is listed here, and it is no random draw.

test: qHTS of Nrf2 Activators; conditions: AREc32 ARE-luciferase reporter (MCF7-derived line), luminescence, 24 h; series mostly up to 46.1 µM; activation: at the top concentration; also: nearly all actives have a fitted effect of over 65% in size; as to activation: % of control where 0% means no effect
Text: Many diseases have some form of oxidative stress injury and ties to inflammation, causing a host of problems for the patient. The antioxidant response element (ARE) plays an important role in alleviating the harmful effects of oxidative stress. The antioxidant response element (ARE) is a transcriptional regulatory element involved in the activation of genes coding for a number of antioxidant proteins and detoxifying enzymes. These enzymes work in concert to protect tissues from oxidative insults and chemical toxicities in human hepatocytes and immune cells. The protective effects of ARE activation are primarily triggered through Nrf2 (NF-E2-related factor) binding to and activating AREs. It is known that Nrf2 controls the production of over 250 antioxidant and detoxification proteins (Hu et al., 2006), thereby protecting tissues by increasing cellular antioxidant content and suppressing inflammatory signaling pathways. The transcription factor Nrf2 is a central link between oxidative chemicals, such as phenolic antioxidants and electrophilic compounds, and the activation of ARE. Nrf2 levels are constitutively low as a consequence of its interaction with Keap1, which targets its degradation (Zipper and Mulcahy, 2002). Electrophiles react with key cysteine residues in Keap1, releasing Nrf2 and allowing its translocation to the nucleus. Once within the nucleus, Nrf2 complexes with coactivators such as p300, and binds to the AREs to induce gene transcription of cytoprotective enzymes, resulting in the prevention of toxicity. Activation of Nrf2 protects tissues by increasing cellular antioxidant content and suppressing inflammatory signaling pathways. Identifying novel and potent Nrf2 activators by using the AREc32 cell line to detect ARE activation by small molecules will lead to the identification and development of probes to study protective pathways in multiple tissues. These specific probes are essential to study the ARE pathway, and eventually to determine whether this pathway does activate genes that could protect against a host of diseases, including cardiovascular diseases, obesity, diabetes, Alzheimer's, and Parkinson's disease.
This project's aim is to identify novel and potent Nrf2 activators by using the AREc32 cell line to detect ARE activation by small molecules, which will lead to the identification and development of probes to study the ARE pathway.
NIH Chemical Genomics Center [NCGC]
NIH Molecular Libraries Probe Centers Network [MLPCN]
Assay Submitter (PI): Curtis Klaassen, University of Kansas Medical Center
5 uL of 1000 cells/well of AREc32_Fluc cells are seeded into 1536-well plate in OPTI-MEM medium with 5% FBS. […] After the addition of 2.5 uL of Steady-Glo. the plates are kept at RT for 30 min, before they are read on the ViewLux.
Potency is read from the fitted curve at half-maximal effect.

Row | SMILES | Potency | activation
1 | COc1cc([N+](=O)[O-])c2nc(C)ccc2c1[N+](=O)[O-] | active: 17.8 µM | –
2 | O=C1C=C2C=C[C@H]3C[C@]2(O1)[C@@H]1CCCCN13 | – | inactive: 7.75%
3 | COc1cccc(N2C(=O)NC(=O)/C(=C\c3ccc([N+](=O)[O-])s3)C2=O)c1 | – | inactive: 8.68%
4 | NC(N)=Nc1ccc2[nH]c3c(c2c1)C[C@@]1(O)[C@H]2Cc4ccc(O)c5c4[C@@]1(CCN2CC1CC1)C3O5 (some centres undefined) | – | inactive: -0.016%
